{"source": "paper PMC6664820", "about": "“Novel natural and synthetic inhibitors of solute carriers SGLT1 and SGLT2” (Pharmacology Research & Perspectives, 2019)", "note": "Hit rate of the full screen: of about 1,900 compounds, about 40 (2%) showed an effect of 50% or more. The list shows a part of the results."}
{"biological_target": "human SGLT1 (hSGLT1) (human, UniProt P13866)", "assay": "primary screen, percent of control activity; higher = less effect of the substance", "set-up": "single well", "details": "50 µM", "in_short": "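Single-point screen at 50 µmol/L in CHO-hSGLT1 cells, with 160 µmol/L 1-NBD-glucose in glucose-free DMEM for 90 min at 37°C. Fluorescence from isopropanol extracts was calibrated, and CHO wild-type uptake was subtracted. Data are percent of uptake without compound.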", "units": {"NORMALIZED SGLT1 ACTIVITY (%)": "%"}}
{"smiles": "COc1ccc(CN(CCN(C)C)c2ccccn2)cc1.O=C(O)/C=C\\C(=O)O", "NORMALIZED SGLT1 ACTIVITY (%)": 62}
{"smiles": "Cc1cc(O)c(C=O)c(O)c1C(=O)O", "NORMALIZED SGLT1 ACTIVITY (%)": 102}
{"smiles": "O=C(O)c1cccnc1", "NORMALIZED SGLT1 ACTIVITY (%)": 122}
{"smiles": "CCC(C)(C)C(=O)O[C@H]1C[C@@H](C)C=C2C=C[C@H](C)[C@H](CC[C@@H]3C[C@@H](O)CC(=O)O3)[C@H]21", "NORMALIZED SGLT1 ACTIVITY (%)": 96}
{"smiles": "COc1ccc(C(c2ccc(OC)cc2)C(Cl)(Cl)Cl)cc1", "NORMALIZED SGLT1 ACTIVITY (%)": 42}
{"smiles": "OCc1c[nH]c2ccccc12", "NORMALIZED SGLT1 ACTIVITY (%)": 101}
{"smiles": "CN(Cc1cc(Br)cc(Br)c1N)C1CCCCC1.Cl", "NORMALIZED SGLT1 ACTIVITY (%)": 44}
{"smiles": "N[C@@H](Cc1c[nH]c2ccccc12)C(=O)O", "NORMALIZED SGLT1 ACTIVITY (%)": 101}
{"smiles": "CN1CCOC(c2ccccc2)c2ccccc2C1", "note": "(centres unmarked)", "NORMALIZED SGLT1 ACTIVITY (%)": 67}
{"smiles": "CC(=O)Oc1ccc(C(c2ccc(OC(C)=O)cc2)c2ccccn2)cc1", "NORMALIZED SGLT1 ACTIVITY (%)": 109}
{"smiles": "Cl.Cl.O=C1c2c(O)ccc(O)c2C(=O)c2c(NCCNCCO)ccc(NCCNCCO)c21", "NORMALIZED SGLT1 ACTIVITY (%)": 106}
{"smiles": "Cl.Nc1ccc(N=Nc2ccccc2)c(N)n1", "NORMALIZED SGLT1 ACTIVITY (%)": 193}
{"smiles": "O=C(O[C@@H]1Cc2c(O)cc(O)cc2O[C@@H]1c1cc(O)c(=O)c2c(O)c(O)cc([C@H]3Oc4cc(O)cc(O)c4C[C@H]3O)c2c1)c1cc(O)c(O)c(O)c1", "NORMALIZED SGLT1 ACTIVITY (%)": 98}
{"smiles": "CC(=O)O[C@H]1CC[C@@]2(C)C(=CC[C@H]3[C@@H]4CC[C@H]([C@H](C)CCCC(C)C)[C@@]4(C)CC[C@@H]32)C1", "NORMALIZED SGLT1 ACTIVITY (%)": 95}
{"smiles": "O=c1[nH]cnc2nc[nH]c12", "NORMALIZED SGLT1 ACTIVITY (%)": 89}
{"smiles": "S=P(N1CC1)(N1CC1)N1CC1", "NORMALIZED SGLT1 ACTIVITY (%)": 142}
{"smiles": "CCCN(CCC)c1c([N+](=O)[O-])cc(C(F)(F)F)cc1[N+](=O)[O-]", "NORMALIZED SGLT1 ACTIVITY (%)": 112}
{"smiles": "NC(=O)NCC(N)C(=O)O", "note": "(centres unmarked)", "NORMALIZED SGLT1 ACTIVITY (%)": 137}
{"smiles": "COC(=O)C[C@H]1C(C)(C)C(=O)[C@@H]2CC3C4=CC(=O)O[C@@H](c5ccoc5)[C@]4(C)CCC3[C@@]1(C)C2=O", "note": "(some centres unmarked)", "NORMALIZED SGLT1 ACTIVITY (%)": 108}
{"smiles": "O=C1C=C2C=C[C@@H]3C[C@@]2(O1)[C@H]1CCCCN31", "NORMALIZED SGLT1 ACTIVITY (%)": 105}
{"smiles": "CC(=O)Nc1cc([As](=O)(O)O)ccc1O", "NORMALIZED SGLT1 ACTIVITY (%)": 104}
{"smiles": "CS(=O)(=O)c1ccc(C2=C(c3ccccc3)C(=O)OC2)cc1", "NORMALIZED SGLT1 ACTIVITY (%)": 173}
{"smiles": "O=C(CCCN1CCC2(CC1)C(=O)NCN2c1ccccc1)c1ccc(F)cc1", "NORMALIZED SGLT1 ACTIVITY (%)": 86}
{"smiles": "COc1ccc2c(c1)[C@@]1(C)CCC(=O)C[C@@H]1CC2", "NORMALIZED SGLT1 ACTIVITY (%)": 184}
{"smiles": "COc1ccc(C(=O)CC(=O)O)c2c1C=CC(C)(C)O2", "NORMALIZED SGLT1 ACTIVITY (%)": 115}
{"smiles": "NC[C@@H]1CC[C@@H](N)[C@@H](O[C@H]2[C@H](O)[C@@H](O[C@H]3O[C@H](CO)[C@@H](O)[C@H](N)[C@H]3O)[C@H](N)C[C@@H]2N)O1.O=S(=O)(O)O", "NORMALIZED SGLT1 ACTIVITY (%)": 96}
{"smiles": "CCN(CC)C(C)CN1c2ccccc2Sc2ccccc21.Cl", "note": "(centres unmarked)", "NORMALIZED SGLT1 ACTIVITY (%)": 46}
{"smiles": "CC1(C)NC(=O)N(c2ccc([N+](=O)[O-])c(C(F)(F)F)c2)C1=O", "NORMALIZED SGLT1 ACTIVITY (%)": 222}
{"smiles": "NC1(C(=O)O)CCCC1", "NORMALIZED SGLT1 ACTIVITY (%)": 114}
{"smiles": "COP(=S)(OC)Oc1ccc(SC)c(C)c1", "NORMALIZED SGLT1 ACTIVITY (%)": 87}
{"smiles": "CC(=O)O[C@@H]1CC[C@]2(C)C3CC[C@]4(C)C(=O)CCC4C3CC[C@H]2C1", "note": "(some centres unmarked)", "NORMALIZED SGLT1 ACTIVITY (%)": 69}
{"smiles": "CCN(CC)CCOC(=O)C(c1ccccc1)c1ccccc1.Cl", "NORMALIZED SGLT1 ACTIVITY (%)": 69}
{"smiles": "O=C1C(CCS(=O)c2ccccc2)C(=O)N(c2ccccc2)N1c1ccccc1", "note": "(centres unmarked)", "NORMALIZED SGLT1 ACTIVITY (%)": 118}
{"smiles": "CC1CC[C@@]2(OC1)O[C@H]1CC3C4CC[C@@H]5C[C@@H](O)CC[C@]5(C)C4CC[C@]3(C)[C@H]1[C@@H]2C", "note": "(some centres unmarked)", "NORMALIZED SGLT1 ACTIVITY (%)": 68}
{"smiles": "COc1cc(O)c(C(=O)/C=C/c2ccccc2)c(OC)c1", "NORMALIZED SGLT1 ACTIVITY (%)": 178}
{"smiles": "O=C(/C=C/C=C/c1ccc2c(c1)OCO2)N1CCCCC1", "NORMALIZED SGLT1 ACTIVITY (%)": 87}
{"smiles": "COC1=C(O)C(=O)c2c(cc3oc(C(C)=O)c(O)c3c2O)C1=O", "NORMALIZED SGLT1 ACTIVITY (%)": 105}
{"smiles": "COc1ccc(-c2oc3cc(O[C@@H]4O[C@H](CO)[C@@H](O)[C@H](O)[C@H]4O)c(OC)c(O)c3c(=O)c2OC)cc1O", "NORMALIZED SGLT1 ACTIVITY (%)": 105}
{"smiles": "CC(=O)O[C@H]1CC[C@@]2(C)C(=CCC3C2CC[C@]2(C)C(=O)CCC32)C1", "note": "(some centres unmarked)", "NORMALIZED SGLT1 ACTIVITY (%)": 123}
{"smiles": "O=C1C=CC(=C(c2ccc(O)cc2)c2ccc(O)cc2)C=C1", "NORMALIZED SGLT1 ACTIVITY (%)": 78}
{"smiles": "COc1cc(OC)c(OC)cc1C=O", "NORMALIZED SGLT1 ACTIVITY (%)": 189}
{"smiles": "N=C(N)NC(=O)c1nc(Cl)c(N2CCCCCC2)nc1N", "NORMALIZED SGLT1 ACTIVITY (%)": 213}
{"smiles": "COS(C)(=O)=O", "NORMALIZED SGLT1 ACTIVITY (%)": 151}
{"smiles": "O=C(O)c1cc(/N=N/c2ccc(S(=O)(=O)Nc3ccccn3)cc2)ccc1O", "NORMALIZED SGLT1 ACTIVITY (%)": 102}
{"smiles": "CSc1nc(NC(C)C)nc(NC(C)C)n1", "NORMALIZED SGLT1 ACTIVITY (%)": 120}
{"smiles": "C[C@@H]1C[C@H]2[C@@H]3CCC4=CC(=O)C=C[C@]4(C)[C@@]3(Cl)[C@@H](O)C[C@]2(C)[C@@]1(OC(=O)c1ccco1)C(=O)CCl", "NORMALIZED SGLT1 ACTIVITY (%)": 121}
{"smiles": "CCOC(=O)[C@H](CCc1ccccc1)N[C@@H](C)C(=O)N1CCC[C@H]1C(=O)O.O=C(O)/C=C\\C(=O)O", "NORMALIZED SGLT1 ACTIVITY (%)": 93}
{"smiles": "CC[C@@H](CO)NC(=O)[C@@H]1C=C2c3cccc4[nH]cc(c34)C[C@H]2N(C)C1.O=C(O)/C=C\\C(=O)O", "NORMALIZED SGLT1 ACTIVITY (%)": 113}
{"smiles": "CCCc1cc(=O)[nH]c(=S)[nH]1", "NORMALIZED SGLT1 ACTIVITY (%)": 182}
{"smiles": "NC[C@H]1O[C@H](O[C@H]2C(O[C@@H]3O[C@H](CO)[C@@H](O)[C@H]3O)[C@@H](O)[C@H](N)C[C@@H]2N)[C@H](N)[C@@H](O)[C@@H]1O.O=S(=O)(O)O", "note": "(some centres unmarked)", "NORMALIZED SGLT1 ACTIVITY (%)": 120}
{"smiles": "CC(=O)Oc1c(C)c(C)c2c(c1C)CCC(C)(CCCC(C)CCCC(C)CCCC(C)C)O2", "note": "(centres unmarked)", "NORMALIZED SGLT1 ACTIVITY (%)": 119}
{"smiles": "COC(=O)c1c(C)cc(OC)cc1O", "NORMALIZED SGLT1 ACTIVITY (%)": 130}
{"smiles": "CC1(C)O[C@@H]2CC3C4C[C@H](F)C5=CC(=O)C=CC5(C)C4C(O)CC3(C)[C@]2(C(=O)CO)O1", "note": "(some centres unmarked)", "NORMALIZED SGLT1 ACTIVITY (%)": 167}
{"smiles": "CC(C)CCCC(C)[C@H]1CCC2C3C(=O)C=C4C[C@@H](O)CC[C@]4(C)C3CC[C@@]21C", "note": "(some centres unmarked)", "NORMALIZED SGLT1 ACTIVITY (%)": 95}
{"smiles": "COC1(C)CCC2OC2(C)CCC2C1CC2(C)C", "note": "(centres unmarked)", "NORMALIZED SGLT1 ACTIVITY (%)": 80}
{"smiles": "OC[C@@H]1CCCN2CCCC[C@H]12", "NORMALIZED SGLT1 ACTIVITY (%)": 78}
{"smiles": "C1N2CN3CN1CN(C2)C3", "NORMALIZED SGLT1 ACTIVITY (%)": 106}
{"smiles": "CCN(CC)CCCC(C)Nc1ccnc2cc(Cl)ccc12.O=P(O)(O)O.O=P(O)(O)O", "note": "(centres unmarked)", "NORMALIZED SGLT1 ACTIVITY (%)": 116}
{"smiles": "O=C1CC[C@]23/C=C/C(=O)NCCCCNCCCNC(=O)/C=C/c4ccc(c2c4)O[C@@H]3C1", "NORMALIZED SGLT1 ACTIVITY (%)": 114}
